In PMC4472343:
These are yes or no findings as the source states them, for the method shown. In cells and extracts the contact can be indirect.

Molecular target: α7 nicotinic acetylcholine receptor subunit (human) (human (endogenous in temporal cortex)), P36544
Assay: pull-down; α7-containing receptors isolated on α-Bgt beads from 2% Triton X-100 extract of human temporal cortex (two biopsies); co-purified subunits detected by Western blot
Settings: remark: other sources report otherwise

binding: no binding
B1: α4 nicotinic acetylcholine receptor subunit (human), P43681 27-627 (receptor)
chain: SSHVETRAHAEERLLKKLFSGYNKWSRPVANISDVVLVRFGLSIAQLIDVDEKNQMMTTNVWVKQEWHDYKLRWDPADYENVTSIRIPSELIWRPDIVLYNNADGDFAVTHLTKAHLFHDGRVQWTPPAIYKSSCSIDVTFFPFDQQNCTMKFGSWTYDKAKIDLVNMHSRVDQLDFWESGEWVIVDAVGTYNTRKYECCAEIYPDITYAFVIRRLPLFYTINLIIPCLLISCLTVLVFYLPSECGEKITLCISVLLSLTVFLLLITEIIPSTSLVIPLIGEYLLFTMIFVTLSIVITVFVLNVHHRSPRTHTMPTWVRRVFLDIVPRLLLMKRPSVVKDNCRRLIESMHKMASAPRFWPEPEGEPPATSGTQSLHPPSPSFCVPLDVPAEPGPSCKSPSDQLPPQQPLEAEKASPHPSPGPCRPPHGTQAPGLAKARSLSVQHMSSPGEAVEGGVRCRSRSIQYCVPRDDAAPEADGQAAGALASRNTHSAELPPPDQPSPCKCTCKKEPSSVSPSATVKTRSTKAPPPHLPLSPALTRAVEGVQYIADHLKAEDTDFSVKEDWKYVAMVIDRIFLWMFIIVCLLGTVGLFLPPWLAGMI
